Binding signal data for 54 sequences are collected here from PMC7819943, “Rice protein-binding microarrays: a tool to detect cis-acting elements near promoter regions in rice”.

The other results are listed elsewhere or left out.

In the assay the target is T1, OsWOX13 (Oryza sativa, UniProt Q5QMM3 1-267).
T1 sequence: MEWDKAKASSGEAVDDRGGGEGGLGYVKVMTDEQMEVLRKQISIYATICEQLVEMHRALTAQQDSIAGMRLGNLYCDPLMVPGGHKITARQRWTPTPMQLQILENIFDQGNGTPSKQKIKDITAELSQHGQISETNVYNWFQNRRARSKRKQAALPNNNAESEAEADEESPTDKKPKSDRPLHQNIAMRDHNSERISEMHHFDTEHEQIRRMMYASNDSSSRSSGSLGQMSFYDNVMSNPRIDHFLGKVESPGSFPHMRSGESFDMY
The experiment in a line: protein-binding microarray (RPBM); PBS, 2% BSA, 51.3 ng/ul salmon testes DNA, 50 uM zinc acetate, 200 nM TF, 25 C, 1 h; high values mean tight binding. The note with it: protein: recombinant; tags: N-terminal polyhistidine and DsRed monomer fusion (pET32a); label: CyDye5-dUTP incorporated in the synthesized complementary strand; 3' TTTTT single-stranded linker to array surface; dsDNA, one strand shown. A digest of the protocol: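 Polyhistidine-tagged DsRed fusions of transcription factors, joined at the N-terminus, were expressed in E. coli BL21-CodonPlus and isolated on Ni–NTA. They were incubated at 200 nM for 1 h at 25 °C on a custom Agilent array, double-stranded and BSA-blocked, in PBS with 2% BSA, salmon testes DNA and 50 µM zinc acetate. The binding signal is per-feature fluorescence intensity (arbitrary units) read on an Axon 4000B scanner after washing.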
Take “ATAAATTGTAGCTTGTGACTTTTCACTAATTCTCACGTATCGGAGTCACCTAGTGCAG”: the binding signal is 6850 fluorescence intensity (a.u.). With “GGACTGTCAATCTTTAATCCTGGAGACCTGGATTATACATCGGAGTCACCTAGTGCAG” the figure was 4380 fluorescence intensity (a.u.).

In the case of “AATTGAGACTTCGGTAAAACTTAAGGGACTAAATTAACTACGGAGTCACCTAGTGCAG”, the binding signal was 52700 fluorescence intensity (a.u.). The figure for “GTCATCTAATTAACTAGACCTAGGTATGAACTAAGTAATACGGAGTCACCTAGTGCAG” is 6630 fluorescence intensity (a.u.); for “TGATTAATTTTCTTTTCACGGGATAGATTAATATACGATACGGAGTCACCTAGTGCAG” it is 18400 fluorescence intensity (a.u.).

For “AAGTTAATGATGATTTAATGATCATGTGCGTACTTCACTTCGGAGTCACCTAGTGCAG”, the binding signal was 27000 fluorescence intensity (a.u.). With “AATCAATCACAAAACCTAAGTCATATAGAACGCAGCCAGACGGAGTCACCTAGTGCAG” the figure was 15100 fluorescence intensity (a.u.); with “GACAGATGTAATTACAGTATAATCGTAGTGTAATTACACTCGGAGTCACCTAGTGCAG”, 15500 fluorescence intensity (a.u.); with “TCGAAAATTAATTGCAGGAAAGGAAACAAGTAGAGGAATCCGGAGTCACCTAGTGCAG”, 26500 fluorescence intensity (a.u.).

Consider “GCCTAAATTAGCCGCTAAGGACACCCACAATGGTTATCTACGGAGTCACCTAGTGCAG”, for which the binding signal is 9220 fluorescence intensity (a.u.). With “CAAAAGAGCATGATTAGCATCACATGCCATACACGACTATCGGAGTCACCTAGTGCAG” the figure was 6080 fluorescence intensity (a.u.); with “ACTTAATTAACTTGGTTCTTCCTTTAATTTCTAGCTATATCGGAGTCACCTAGTGCAG”, 50100 fluorescence intensity (a.u.). The figure for “CCGTCGCCTGATGGAGCAGAATCGTGAAACACGTTGTAAGCGGAGTCACCTAGTGCAG” is 57800 fluorescence intensity (a.u.); for “GGTGACTAAGAATGAAGAAGATAATTTGGAGTCAACCTTGCGGAGTCACCTAGTGCAG” it is 4280 fluorescence intensity (a.u.). In the case of “TCACCTGACAGGTAATTAACAGGTCCCATGGTATATGAAGCGGAGTCACCTAGTGCAG”, the binding signal was 47400 fluorescence intensity (a.u.).

For the sequence “TAATTAATAATTAATTAATTATGTGTTAATTGCTTGCTCCCGGAGTCACCTAGTGCAG”, the binding signal is 65500 fluorescence intensity (a.u.). With “ATAAAATTAGAAACATGCCACTAACGTCACGCTTTCCATCCGGAGTCACCTAGTGCAG” the figure was 5480 fluorescence intensity (a.u.); with “CTCTAATAAATAAATAAATCATCAACAATACATGAATATCCGGAGTCACCTAGTGCAG”, 4180 fluorescence intensity (a.u.); with “TTCATTAGTACATAATTAATTAAGTATATTAGTTAAAAGTCGGAGTCACCTAGTGCAG”, 5110 fluorescence intensity (a.u.).

As for “TTTAATTTGCTTCTGTGAGACAGTGAGAGTGGAATTCTGACGGAGTCACCTAGTGCAG”, the binding signal is 6870 fluorescence intensity (a.u.). With “TAAATATATTGTCAAATTATATTTAATGTTTTATTTGATACGGAGTCACCTAGTGCAG” the figure was 3180 fluorescence intensity (a.u.); with “TTCTTCTATTTATAATTTCCACTGTTTGTTCAAGTTTAGACGGAGTCACCTAGTGCAG”, 3650 fluorescence intensity (a.u.); with “TCCGAATTTCAATTAGTTCTAAATTATAAACCGGTATGGACGGAGTCACCTAGTGCAG”, 15300 fluorescence intensity (a.u.). With “TTTAAAAGTAATTGAAATTGTGTTCTTTAGGCTTAGTAATCGGAGTCACCTAGTGCAG” the figure was 9280 fluorescence intensity (a.u.). With “TCACTTTGATTATCGTAATCTACCGTGATCCGAGCTGAAACGGAGTCACCTAGTGCAG” the figure was 12400 fluorescence intensity (a.u.); with “GCTGATTGATTCATTCTGATCTGAACATATAGACAACCATCGGAGTCACCTAGTGCAG”, 54700 fluorescence intensity (a.u.); with “GTTAATTGAATACGTGCTTGCACGTCTTGTATTACAAAACCGGAGTCACCTAGTGCAG”, 25300 fluorescence intensity (a.u.). “CAATAATTATCTATAAGCATATACTACACCATTAATATATCGGAGTCACCTAGTGCAG”: the binding signal is 19500 fluorescence intensity (a.u.). With “ATACAAATTTTCCATGTAATCATATGAATTAGTTCCAGAACGGAGTCACCTAGTGCAG” the figure was 4820 fluorescence intensity (a.u.); with “CCCAGAGAGTTAATTACTGTGGTTGGGTGGCAGTTACTGCCGGAGTCACCTAGTGCAG”, 3360 fluorescence intensity (a.u.); with “CTGTAGACTGGCTGACTGGGGATTAATCAGTTCTCACATGCGGAGTCACCTAGTGCAG”, 19000 fluorescence intensity (a.u.).

With “CCTTGGTAATAATTTGCTCAGTGATGCAAATCAAACTGGGCGGAGTCACCTAGTGCAG”, the binding signal was 10600 fluorescence intensity (a.u.).

For the sequence “CCTCTGGATTGAACGGCAGGAGATACCTAAGCTAGCTAGCCGGAGTCACCTAGTGCAG”, the binding signal is 3220 fluorescence intensity (a.u.). Turning to “AATATTAATTTGGATTCAAACTTCCTTCTTCAAATATCTTCGGAGTCACCTAGTGCAG”, the binding signal is 14100 fluorescence intensity (a.u.).

Consider “TTTGATGATAAATCAAGTTAAAATAAAATAAATGATATTACGGAGTCACCTAGTGCAG”, for which the binding signal is 8320 fluorescence intensity (a.u.). The figure for “CTAATTTGTCAATCCATTTTCATCCAAGTATATCCAATTCCGGAGTCACCTAGTGCAG” is 30100 fluorescence intensity (a.u.); for “TGTGACTGAAAAGTTGTGTGTGTATGACAGGTTGATGTGACGGAGTCACCTAGTGCAG” it is 9260 fluorescence intensity (a.u.); for “AATTGATTAAGATGATGATGAAAGATAATACAGCTCGATCCGGAGTCACCTAGTGCAG” it is 27100 fluorescence intensity (a.u.). The figure for “ATAATTAACAGCATCTCTAACGCAATGGGGTTGCTTCTTGCGGAGTCACCTAGTGCAG” is 30500 fluorescence intensity (a.u.); for “CTTAACGGCTGTGATTGATTGACGGTGTGATGTATACATACGGAGTCACCTAGTGCAG” it is 39600 fluorescence intensity (a.u.); for “GGTGATGAGTGGTGGGGAGAAGGATGGCTACCAACTTGGACGGAGTCACCTAGTGCAG” it is 3730 fluorescence intensity (a.u.). The figure for “TGCGATTGATTCGGTATTAGAGCCTGCATACGTGTCATCTCGGAGTCACCTAGTGCAG” is 20500 fluorescence intensity (a.u.); for “TTATAATTGACATGAGTGTTCGTATTTACACATAATTATTCGGAGTCACCTAGTGCAG” it is 26300 fluorescence intensity (a.u.); for “CTAATAACAAAATAAATTACAGAATCCGTCTATAAACCGCCGGAGTCACCTAGTGCAG” it is 8520 fluorescence intensity (a.u.).

On to “TTTTCTTAATTACAGGTGGAATTAATCAGCTGTGGTGTGACGGAGTCACCTAGTGCAG”, for which the binding signal is 10200 fluorescence intensity (a.u.). The figure for “ATTAACTTGACCACTAATTCACTGTCTTAAATTACTGCTGCGGAGTCACCTAGTGCAG” is 8000 fluorescence intensity (a.u.).

Regarding “AGATATTCAATTAACTATATACCGTATCTCTCTTCGTTTTCGGAGTCACCTAGTGCAG”, the binding signal is 13400 fluorescence intensity (a.u.). On to “ACCTGTAGATTTTATGATTAGGTGAGCATATTTTATATGTCGGAGTCACCTAGTGCAG”, for which the binding signal was 9800 fluorescence intensity (a.u.). The figure for “GATGATGTGACAGGACGCGTGAAGTGTGGGCCATAGACAACGGAGTCACCTAGTGCAG” is 17000 fluorescence intensity (a.u.); for “AAATTAAATTGCCCGGATCAATGGCTACAAATACCCCATGCGGAGTCACCTAGTGCAG” it is 15200 fluorescence intensity (a.u.); for “CCTCCTGCATCGTCAAATCATGATGGATTGTTATTGGACCCGGAGTCACCTAGTGCAG” it is 6050 fluorescence intensity (a.u.).

Turning to “GCAATGATTATTCTAAACATGAACTTACTTTGACACAAATCGGAGTCACCTAGTGCAG”, the binding signal was 26400 fluorescence intensity (a.u.). With “AGGGTGATTGACAGGTGGGTCCATCCCCTCACATGCCAGGCGGAGTCACCTAGTGCAG” the figure was 64800 fluorescence intensity (a.u.); with “TGCATGAACAAATTGATCACAAGGTATGGTATGGTATGATCGGAGTCACCTAGTGCAG”, 7540 fluorescence intensity (a.u.).
